# The list shows a part of the results. The energies were worked out here from pooled read counts, against the library average; single values are noisy.
# Biological target: T1, Pho4 (S. cerevisiae) (UniProt P07270)
# T1 sequence: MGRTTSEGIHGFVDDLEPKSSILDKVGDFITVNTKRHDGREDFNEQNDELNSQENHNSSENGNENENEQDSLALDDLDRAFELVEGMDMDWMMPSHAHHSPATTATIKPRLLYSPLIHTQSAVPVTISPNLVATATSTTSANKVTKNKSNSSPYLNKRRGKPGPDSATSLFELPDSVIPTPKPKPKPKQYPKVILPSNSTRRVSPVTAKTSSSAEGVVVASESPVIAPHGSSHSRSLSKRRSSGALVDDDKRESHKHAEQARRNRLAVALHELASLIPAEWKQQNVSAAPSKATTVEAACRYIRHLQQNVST
# Test: relative binding free energy (BET-seq); higher = weaker binding
# Conditions: reference: library average
row,Sequence,relative binding free energy
1,GGTCTCACGTGGTTGG,0.26 kcal/mol
2,CTTTTCACGTGGGGCG,0.1 kcal/mol
3,TCATTCACGTGGGGCT,0.07 kcal/mol
4,GTCCGCACGTGCGTGG,-0.08 kcal/mol
5,TCGTGCACGTGGAAGT,0.03 kcal/mol
6,AGAACCACGTGTGGTG,0.05 kcal/mol
7,TCTTGCACGTGGTGCA,-0.07 kcal/mol
8,AGGGGCACGTGGTCAA,-0.15 kcal/mol
9,TCGGTCACGTGGGCCG,-0.05 kcal/mol
10,AACGGCACGTGGGGTG,-0.28 kcal/mol
11,AGGGTCACGTGCACGT,0.04 kcal/mol
12,GTGTGCACGTGAATCT,0.23 kcal/mol
13,GTGTCCACGTGTTAGG,0.12 kcal/mol
14,GGTTACACGTGGTGTA,0.07 kcal/mol
15,AGGATCACGTGGATGG,0.11 kcal/mol
16,TTGTACACGTGCATTT,0.18 kcal/mol
17,TGGTTCACGTGTCGGG,0.31 kcal/mol
18,GGTGTCACGTGACGGT,0.25 kcal/mol
19,TGGCACACGTGAGTAG,0.3 kcal/mol
20,AGGGGCACGTGAGATG,0.06 kcal/mol
21,ATTTTCACGTGGGTCG,0.3 kcal/mol
22,GGTAGCACGTGGACTG,0.03 kcal/mol
23,CGTTTCACGTGACTGT,0.47 kcal/mol
24,TTGTGCACGTGTCCTG,-0.14 kcal/mol
25,TGGCACACGTGGGCTG,-0.08 kcal/mol

row,Sequence,relative binding free energy
1,TCTTTCACGTGAGCGG,0.42 kcal/mol
2,TGAGTCACGTGGCCTG,0.02 kcal/mol
3,TAGTGCACGTGAAGAT,0.14 kcal/mol
4,AGGTTCACGTGAGTGT,0.35 kcal/mol
5,TAAATCACGTGTGGGT,0.13 kcal/mol
6,TGGAGCACGTGAATTA,0.23 kcal/mol
7,AGGCGCACGTGCAGTG,-0.18 kcal/mol
8,CTCTTCACGTGAGGGG,0.25 kcal/mol
9,TGCGTCACGTGGTATC,0.11 kcal/mol
10,ACGAGCACGTGCGTTG,0.01 kcal/mol
11,GTGGACACGTGTGAAT,0.06 kcal/mol
12,TATTTCACGTGTACTA,0.26 kcal/mol
13,GTGGGCACGTGATGGC,0.09 kcal/mol
14,AGGTTCACGTGTGGTG,0.29 kcal/mol
15,TGCTACACGTGTAAGG,0.21 kcal/mol
16,TAACACACGTGGTGGT,-0.06 kcal/mol
17,ACGTCCACGTGTTGGG,0.01 kcal/mol
18,GATGGCACGTGGGACT,-0.23 kcal/mol
19,TTCGTCACGTGGACGT,0.1 kcal/mol
20,GAGTACACGTGTTTAG,0.21 kcal/mol
21,TGATTCACGTGTTTGG,0.28 kcal/mol
22,TTTGGCACGTGCGTGT,-0.23 kcal/mol
23,GGGAGCACGTGTGTGA,-0.01 kcal/mol
24,GGTACCACGTGAATGG,0.39 kcal/mol
25,CTGTGCACGTGTTTAA,-0.03 kcal/mol

row,Sequence,relative binding free energy
1,GTTGGCACGTGGAGGG,-0.06 kcal/mol
2,GGGTACACGTGATTAG,0.34 kcal/mol
3,ATTTACACGTGTGGTC,0.08 kcal/mol
4,GTGATCACGTGTCATG,0.12 kcal/mol
5,TGGAGCACGTGGTTAG,-0.09 kcal/mol
6,TCGGTCACGTGTTAGA,0.1 kcal/mol
7,TATTCCACGTGATTTG,0.22 kcal/mol
8,TAAGGCACGTGATAGT,-0.09 kcal/mol
9,TTAGGCACGTGCTTGA,-0.25 kcal/mol
10,TGTGACACGTGATGTT,0.09 kcal/mol
11,ATTTGCACGTGGTCCG,-0.08 kcal/mol
12,TACGACACGTGTGGTA,0.14 kcal/mol
13,TGTGGCACGTGGCGGT,-0.12 kcal/mol
14,GTGGTCACGTGGTCGG,0.1 kcal/mol
15,GTTGTCACGTGAGCGG,0.21 kcal/mol
16,GGGATCACGTGTAGAT,0.24 kcal/mol
17,TTTTTCACGTGGGCGG,0.12 kcal/mol
18,ATTTTCACGTGGCGGA,0.41 kcal/mol
19,GTGAACACGTGTTATT,0.05 kcal/mol
20,TTGCTCACGTGGTTTA,0.14 kcal/mol
21,CGGGTCACGTGCAAGG,0.04 kcal/mol
22,CTGTGCACGTGCGGTT,-0.16 kcal/mol
23,TGGAACACGTGGTTGC,-0.03 kcal/mol
24,TTGGTCACGTGTGCTT,0.03 kcal/mol
25,ATGAACACGTGGGAGT,-0.06 kcal/mol

row,Sequence,relative binding free energy
1,TATAACACGTGGTTGT,0 kcal/mol
2,CGTAGCACGTGTAAGG,-0.03 kcal/mol
3,GAATTCACGTGGCGTA,0.33 kcal/mol
4,TGGGGCACGTGCTTTT,-0.19 kcal/mol
5,ATGGTCACGTGAATAT,0.29 kcal/mol
6,GGGATCACGTGGTTCG,0.14 kcal/mol
7,GTTTTCACGTGGTATC,0.36 kcal/mol
8,CGAAACACGTGTGGGT,0.02 kcal/mol
9,GTCGGCACGTGGATGT,-0.08 kcal/mol
10,GTACACACGTGTTGGG,0.09 kcal/mol
11,GGCTGCACGTGGTTAA,-0.01 kcal/mol
12,TCTGTCACGTGGGATA,-0.12 kcal/mol
13,AAAATCACGTGTTTGT,0.21 kcal/mol
14,ATATCCACGTGTAGGG,-0.01 kcal/mol
15,CGATTCACGTGTGGAT,0.33 kcal/mol
16,ATGCGCACGTGAGGTT,0.17 kcal/mol
17,CTTTGCACGTGAGGTG,0.13 kcal/mol
18,AGATCCACGTGTGGTT,0.11 kcal/mol
19,ATGTTCACGTGGGTAG,0.21 kcal/mol
20,TACCGCACGTGTGTGG,0.08 kcal/mol
21,GTCGGCACGTGTTTTG,0.17 kcal/mol
22,TGTTGCACGTGTAAGT,0.12 kcal/mol
23,ACGGACACGTGGGAGG,-0.15 kcal/mol
24,GTTGGCACGTGTATGC,-0.04 kcal/mol
25,TATTTCACGTGTGGGA,0.38 kcal/mol

row,Sequence,relative binding free energy
1,TTGATCACGTGTACGT,0.23 kcal/mol
2,CTGGTCACGTGTTAGT,0.14 kcal/mol
3,TTGCGCACGTGGGACG,-0.14 kcal/mol
4,TTTTTCACGTGCTATA,0.23 kcal/mol
5,GTGTGCACGTGATGTC,0.16 kcal/mol
6,TCGGTCACGTGGGGCA,-0.11 kcal/mol
7,GTGAACACGTGGTGAG,-0.06 kcal/mol
8,GTTATCACGTGTGTCG,0.16 kcal/mol
9,TATTGCACGTGAAGTT,0.12 kcal/mol
10,CATGTCACGTGGGAAG,0.12 kcal/mol
11,TTAGGCACGTGATTCG,-0.05 kcal/mol
12,TGGGACACGTGTTGTC,0.1 kcal/mol
13,CGGTGCACGTGGCGAG,-0.06 kcal/mol
14,TCAGGCACGTGGGCAG,-0.3 kcal/mol
15,CTTATCACGTGGTGAG,0.15 kcal/mol
16,TAAGGCACGTGTATTA,-0.16 kcal/mol
17,GGGGACACGTGCGGCA,-0.01 kcal/mol
18,AGTCTCACGTGGGATG,0.1 kcal/mol
19,GGAGCCACGTGCGGGG,-0.17 kcal/mol
20,GTATACACGTGACGGT,0.24 kcal/mol
21,TTGTGCACGTGGCGTG,-0.1 kcal/mol
22,TTGTACACGTGGGGGG,0 kcal/mol
23,ATTTTCACGTGGGTGT,0.14 kcal/mol
24,TGCGTCACGTGCGGAT,0.03 kcal/mol
25,CGATGCACGTGGTAGG,-0.03 kcal/mol

row,Sequence,relative binding free energy
1,TGATTCACGTGAATTA,0.39 kcal/mol
2,ACAGGCACGTGTGTGA,-0.09 kcal/mol
3,ATATGCACGTGTGTTG,-0.01 kcal/mol
4,GTGTTCACGTGTGAAA,0.32 kcal/mol
5,TGCTGCACGTGATATT,0.07 kcal/mol
6,TATAGCACGTGGTCGG,-0.25 kcal/mol
7,GTCAGCACGTGGAGAG,-0.01 kcal/mol
8,AGGTTCACGTGCAGAT,0.2 kcal/mol
9,TCAATCACGTGTGGTG,0.17 kcal/mol
10,AGTTACACGTGCTAGT,0.11 kcal/mol
11,AATTGCACGTGTTTAA,0.01 kcal/mol
12,CTTATCACGTGGCTGT,0.04 kcal/mol
13,AAGATCACGTGAGGTT,0.31 kcal/mol
14,TTTGTCACGTGTAGCA,0.07 kcal/mol
15,TTGTCCACGTGGTTTC,0.1 kcal/mol
16,ATGGTCACGTGGTTCG,0 kcal/mol
17,ATGCGCACGTGTGAGG,-0.04 kcal/mol
18,AAGCTCACGTGGTTTA,0.3 kcal/mol
19,GAGTGCACGTGATGAA,0.26 kcal/mol
20,CTGTTCACGTGGAGGT,0.24 kcal/mol
21,GGTAGCACGTGGCGAA,0 kcal/mol
